Values joined by “and” are separate entries in the source; they are usually repeats but may differ in a detail not shown here. Identical values can stand only once. Inconclusive results, whose numbers are uncertain, are shown with a selection of clear calls. For some of these results: Potencies beside an inconclusive call are fits to weak or partial responses and may not hold up. Some structures have more than one record in an assay (separate samples or runs), and their calls can disagree. Active and inactive are the calls of the source. Unless noted, the call rests on the fitted dose curve; in most records, active means well fitted curve in the direction sought with a large enough effect in the repeat runs; inconclusive means weak or mixed curves; inactive means no such curve, though single readings can be large; an effect the other way counts as inactive or inconclusive.
Assays:
[1] = qHTS assay to identify small molecule that activate the aryl hydrocarbon receptor (AhR) signaling pathway - cell viability counter screen (AID 743086); further: nearly all actives have a fitted effect of over 45% in size; further: potency means the concentration at half of the fitted maximal effect;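 on viability change, negative = cytotoxic: HepG2 liver cells carrying the AhR DRE luciferase reporter; on the % scale 0 is the no-effect control and ±100 the full control effect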
In short: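 HepG2-AhR-luc (HG2L7.5c1) cells, 4000/well, treated 24 h at 37 C with compound; viability measured as CellTiter-Fluor fluorescence after 30 min in the same wells as the luciferase read.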

[2] = qHTS assay for small molecule agonists of the antioxidant response element (ARE) signaling pathway (AID 743202; active means well fitted activation curve with a large enough effect in the signal ratio in the repeat runs, not every such curve was filed as active; inconclusive means weak or mixed curves, or effect the other way; inactive means no such curve, though single readings can be large or run the other way; the % refers to the signal ratio; further: potency means the concentration at half of the fitted maximal effect; on activation: on the % scale 0 is the no-effect control and ±100 the full control effect); conditions: HepG2 ARE-bla reporter, beta-lactamase FRET, 16 h; activation: at 73.3 µM (top of the series) unless noted
In short: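 HepG2 ARE-bla reporter line, 2,000 cells/well; 5 h preincubation 37 C/5% CO2; compound (DMSO) 16 h 37 C; B/G FRET substrate 2 h RT; fluorescence intensity.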

[3] = qHTS assay to identify small molecule agonists of the peroxisome proliferator-activated receptor delta (PPARd) signaling pathway - cell viability counter screen (AID 743211); conditions: PPARd-bla HEK293H viability, CellTiter-Glo luminescence, 17 h; activity change, negative = cytotoxicity: at 62.6 µM (top of the series) unless noted; further: potency means the concentration at half of the fitted maximal effect; nearly all actives have a fitted effect of over 55% in size
In short: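 Luminescent ATP viability assay (CellTiter-Glo, 30 min RT) in UAS-bla HEK293H cells carrying the PPAR delta reporter construct, 3000 cells/well, after a 17 h compound treatment at 37 C.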

[4] = biological target: Peroxisome proliferator-activated receptor delta (Homo sapiens) (UniProt Q03181); assay: qHTS assay to identify small molecule agonists of the peroxisome proliferator-activated receptor delta (PPARd) signaling pathway (AID 743212; calls by dose curve; further: potency means the concentration at half of the fitted maximal effect); conditions: HEK293H PPARd-UAS-bla, beta-lactamase FRET ratio, 17 h; activation: at 62.6 µM (top of the series) unless noted
In short: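 Read-out: beta-lactamase FRET fluorescence after 2 h room-temperature incubation with LiveBLAzer B/G substrate. Cells were HEK293H carrying a UAS-bla reporter for PPARd, treated at 37 C with DMSO-dissolved compounds.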

[5] = qHTS assay to identify small molecule antagonists of the peroxisome proliferator-activated receptor delta (PPARd) signaling pathway - cell viability counter screen (AID 743213); conditions: PPARd-bla HEK293H viability, CellTiter-Glo luminescence, 17 h; viability change, negative = cytotoxic: at 62 µM (top of the series) unless noted; further: potency means the concentration at half of the fitted maximal effect; nearly all actives have a fitted effect of over 50% in size
In short: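 Cytotoxicity counter screen: CellTiter-Glo luminescence read 30 min after addition, in the same wells as the reporter assay. There, PPARd UAS-bla HEK293H cells (3000/well) were treated 17 h at 37 C with compound and 300 nM L165041.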

[6] = biological target: Peroxisome proliferator-activated receptor delta (Homo sapiens) (UniProt Q03181); assay: qHTS assay to identify small molecule antagonists of the peroxisome proliferator-activated receptor delta (PPARd) signaling pathway (AID 743215; active means well fitted inhibition curve with a large enough effect in the signal ratio in the repeat runs, not every such curve was filed as active; inconclusive means weak or mixed curves, or effect the other way; inactive means no such curve, though single readings can be large or run the other way; the % refers to the signal ratio;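 further: cells stimulated with agonist L165041 at 300 nM final during compound exposure; potency means the concentration at half of the fitted maximal effect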); conditions: HEK293H PPARd-UAS-bla, beta-lactamase FRET ratio, antagonist, 17 h; ratio activity, negative = inhibition: at 62 µM (top of the series) unless noted
In short: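 HEK293H GeneBLAzer PPARd UAS-bla reporter cells; cpd + L165041 300 nM final, 17 h 37 C; LiveBLAzer B/G FRET substrate 2 h RT; fluorescence intensity read-out. Antagonist mode.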

[7] = biological target: Bile acid receptor (Homo sapiens) (UniProt Q96RI1); assay: qHTS assay to identify small molecule antagonists of the farnesoid-X-receptor (FXR) signaling pathway (AID 743217; active means well fitted inhibition curve with a large enough effect in the signal ratio in the repeat runs, not every such curve was filed as active; inconclusive means weak or mixed curves, or effect the other way; inactive means no such curve, though single readings can be large or run the other way; the % refers to the signal ratio; further: potency means the concentration at half of the fitted maximal effect); conditions: HEK293T FXR-UAS-bla, beta-lactamase ratio, CDCA-stimulated, 16 h; activity change, negative = inhibition: at 62.6 µM (top of the series) unless noted
In short: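 Read-out: beta-lactamase FRET fluorescence (LiveBLAzer B/G substrate, 2 h, room temperature) in GeneBLAzer FXR-UAS-bla HEK 293T cells. Compounds were co-dosed with 50 uM chenodeoxycholic acid (final) and incubated 16 h at 37 °C.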

[8] = qHTS assay to identify small molecule agonists of the farnesoid-X-receptor (FXR) signaling pathway - cell viability counter screen (AID 743218); conditions: FXR-bla HEK293T viability, CellTiter-Glo luminescence, 16 h; viability change, negative = cytotoxic: at 62.6 µM (top of the series) unless noted; further: potency means the concentration at half of the fitted maximal effect; nearly all actives have a fitted effect of over 45% in size
In short: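 Luminescence from CellTiter-Glo, read after 30 min at RT, reports viability of GeneBLAzer FXR-UAS-bla HEK 293T cells treated 16 h with compounds in the wells used for the beta-lactamase reporter.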

[9] = biological target: Bile acid receptor (Homo sapiens) (UniProt Q96RI1); assay: qHTS assay to identify small molecule agonists of the farnesoid-X-receptor (FXR) signaling pathway (AID 743220; active means well fitted activation curve with a large enough effect in the signal ratio in the repeat runs, not every such curve was filed as active; inconclusive means weak or mixed curves, or effect the other way; the % refers to the signal ratio; further: on the % scale 0 is the no-effect control and ±100 the full control effect); conditions: HEK293T FXR-UAS-bla, beta-lactamase FRET ratio, 16 h; activation: at 62.6 µM (top of the series) unless noted
In short: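 FXR-UAS-bla HEK 293T cells carrying a UAS-driven beta-lactamase reporter were plated for 5 h at 37C/5% CO2, then exposed to DMSO-dissolved Tox21 10K compounds for 16 h at 37C. A LiveBLAzer B/G FRET substrate was loaded for 2 h at room temperature before fluorescence reading.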

[10] = qHTS assay to identify small molecule antagonists of the farnesoid-X-receptor (FXR) signaling pathway - cell viability counter screen (AID 743221; active means well fitted cell-killing curve with a large enough effect in the repeat runs, not every such curve was filed as active; inconclusive means weak or mixed curves, or effect the other way; inactive means no such curve, though single readings can be large or run the other way; further: potency means the concentration at half of the fitted maximal effect; nearly all actives have a fitted effect of over 50% in size); conditions: FXR-bla HEK293T viability, CellTiter-Glo luminescence, 16 h; activity change, negative = cytotoxicity: at 62.6 µM (top of the series) unless noted
In short: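 In GeneBLAzer FXR-UAS-bla HEK 293T cells stimulated with 50 uM chenodeoxycholic acid (final), compounds acted for 16 h at 37 C. Viability was assessed afterwards by CellTiter-Glo luminescence.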

[11] = biological target: Vitamin D3 receptor (Homo sapiens) (UniProt P11473); assay: qHTS assay to identify small molecule antagonists of the vitamin D receptor (VDR) signaling pathway (AID 743223; active means well fitted inhibition curve with a large enough effect in the signal ratio in the repeat runs, not every such curve was filed as active; inconclusive means weak or mixed curves, or effect the other way; inactive means no such curve, though single readings can be large or run the other way; the % refers to the signal ratio; further: potency means the concentration at half of the fitted maximal effect); conditions: VDR-UAS-bla HEK293T, beta-lactamase FRET ratio, 16 h; activity change, negative = inhibition: at 61 µM (top of the series) unless noted
In short: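 Agonist 1alpha,25-dihydroxyvitamin D3 (3 nM in well) was added with each compound to VDR-bla cells preincubated 4 h. Cells stood 16 h at 37C, then FRET substrate 2 h at room temperature; fluorescence intensity recorded.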

[12] = qHTS assay to identify small molecule agonists of the vitamin D receptor (VDR) signaling pathway - cell viability counter screen (AID 743224); conditions: VDR-bla HEK293T viability, CellTiter-Glo luminescence, 16 h; activity change, negative = cytotoxicity: at 62.6 µM (top of the series); further: potency means the concentration at half of the fitted maximal effect; nearly all actives have a fitted effect of over 50% in size
In short: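 Cytotoxicity counter screen: VDR-bla cells, 16 h compound exposure at 37C, 5% CO2; CellTiter-Glo luminescence, 30 min RT, same wells as bla read.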

[13] = qHTS assay for small molecule activators of the heat shock response signaling pathway (AID 743210; active means well fitted activation curve with a large enough effect in the signal ratio in the repeat runs, with a control signal flat, not every such curve was filed as active; inconclusive means weak or mixed curves; the % refers to the signal ratio; further: potency means the concentration at half of the fitted maximal effect); conditions: HeLa HSE-bla reporter, beta-lactamase ratio, 5 h; activation: at 62.6 µM (top of the series) unless noted
In short: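 Beta-lactamase reporter read-out: FRET substrate fluorescence after 2.5 h at RT, following 5 h compound treatment at 37 C of HeLa cells carrying HSE-driven bla reporter; quantitative HTS format.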

[14] = biological target: Vitamin D3 receptor (Homo sapiens) (UniProt P11473); assay: qHTS assay to identify small molecule agonists of the vitamin D receptor (VDR) signaling pathway (AID 743222; calls by dose curve; further: potency means the concentration at half of the fitted maximal effect); conditions: HEK293T VDR-UAS-bla, beta-lactamase FRET ratio, 16 h; activation: at 63.5 µM (top of the series) unless noted
In short: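 Beta-lactamase reporter readout (LiveBLAzer B/G FRET, 2 h RT) in VDR-bla cells after 16 h compound treatment at 37C, 5% CO2; cells pre-incubated 4 h before pin transfer of DMSO solutions.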

[15] = biological target: Peroxisome proliferator-activated receptor gamma (Homo sapiens) (UniProt P37231); assay: qHTS assay to identify small molecule antagonists of the peroxisome proliferator-activated receptor gamma (PPARg) signaling pathway (AID 743191; calls by dose curve; further: nearly all actives have a fitted effect of over 30% in size; further: potency means the concentration at half of the fitted maximal effect; on ratio activity, negative = inhibition: on the % scale 0 is the no-effect control and ±100 the full control effect); conditions: HEK293H PPARg-UAS-bla, beta-lactamase ratio, antagonist, 17 h; ratio activity, negative = inhibition: at 62.6 µM (top of the series) unless noted
In short: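 GeneBLAzer PPARg UAS-bla HEK293H cells, 5 h post-plating, exposed to compounds 17 h at 37C. LiveBLAzer B/G FRET substrate added for 1 h at room temperature; beta-lactamase reporter read by fluorescence intensity.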

[16] = qHTS assay to identify small molecule antagonists of the peroxisome proliferator-activated receptor gamma (PPARg) signaling pathway - cell viability counter screen (AID 743194); conditions: PPARg-bla HEK293H viability, CellTiter-Glo luminescence, 17 h, co-treated with 50 nM rosiglitazone; activity change, negative = cytotoxicity: at 62.6 µM (top of the series) unless noted; further: on the % scale 0 is the no-effect control and ±100 the full control effect; nearly all actives have a fitted effect of over 55% in size
In short: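 Cytotoxicity counter screen in PPARg-bla HEK293H cells, same wells as reporter assay. Compounds plus 50 nM rosiglitazone (final) for 17 h at 37 C, then viability read by CellTiter-Glo luminescence.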

[17] = qHTS assay for small molecule activators of the heat shock response signaling pathway - cell viability counter screen (AID 743209); conditions: HSE-bla HeLa viability, CellTiter-Glo luminescence, 5 h; activity change, negative = cytotoxicity: at 62.6 µM (top of the series) unless noted; further: potency means the concentration at half of the fitted maximal effect; nearly all actives have a fitted effect of over 50% in size
In short: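 HSE-bla HeLa; 1500 cells/well; overnight 37 C, 5% CO2; compound 5 h 37 C; LiveBLAzer B/G substrate 2.5 h RT; CellTiter-Glo 30 min RT; luminescence.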
Tags describe the fitted curve by direction and shape or compound fluorescence and quenching.

Chain of UniProt P11473 (P11473 whole entry, looked up): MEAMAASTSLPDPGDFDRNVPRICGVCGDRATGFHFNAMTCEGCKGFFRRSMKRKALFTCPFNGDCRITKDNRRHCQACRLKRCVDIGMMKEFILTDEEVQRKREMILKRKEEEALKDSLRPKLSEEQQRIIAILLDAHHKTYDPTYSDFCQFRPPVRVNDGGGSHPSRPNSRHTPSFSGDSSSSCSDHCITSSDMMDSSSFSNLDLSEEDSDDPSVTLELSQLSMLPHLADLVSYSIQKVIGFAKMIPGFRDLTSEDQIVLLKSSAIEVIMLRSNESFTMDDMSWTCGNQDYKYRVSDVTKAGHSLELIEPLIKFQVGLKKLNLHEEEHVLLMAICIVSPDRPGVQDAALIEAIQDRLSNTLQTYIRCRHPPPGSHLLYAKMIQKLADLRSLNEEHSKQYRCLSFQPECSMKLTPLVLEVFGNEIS
Chain of UniProt Q96RI1 (Q96RI1 whole entry, looked up): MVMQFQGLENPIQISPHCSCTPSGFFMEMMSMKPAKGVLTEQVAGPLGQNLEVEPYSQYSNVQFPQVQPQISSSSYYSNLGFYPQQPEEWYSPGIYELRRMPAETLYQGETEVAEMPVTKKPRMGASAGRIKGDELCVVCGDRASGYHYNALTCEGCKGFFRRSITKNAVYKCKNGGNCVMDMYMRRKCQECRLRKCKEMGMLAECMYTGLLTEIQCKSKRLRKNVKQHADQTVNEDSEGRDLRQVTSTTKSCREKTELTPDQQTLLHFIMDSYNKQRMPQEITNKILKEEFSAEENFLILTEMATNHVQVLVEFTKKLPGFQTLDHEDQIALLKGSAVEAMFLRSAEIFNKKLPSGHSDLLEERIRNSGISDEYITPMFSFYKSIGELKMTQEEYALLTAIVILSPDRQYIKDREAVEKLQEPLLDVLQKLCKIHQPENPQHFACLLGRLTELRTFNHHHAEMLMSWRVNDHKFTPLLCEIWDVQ
Chain of UniProt Q03181 (Q03181 whole entry, looked up): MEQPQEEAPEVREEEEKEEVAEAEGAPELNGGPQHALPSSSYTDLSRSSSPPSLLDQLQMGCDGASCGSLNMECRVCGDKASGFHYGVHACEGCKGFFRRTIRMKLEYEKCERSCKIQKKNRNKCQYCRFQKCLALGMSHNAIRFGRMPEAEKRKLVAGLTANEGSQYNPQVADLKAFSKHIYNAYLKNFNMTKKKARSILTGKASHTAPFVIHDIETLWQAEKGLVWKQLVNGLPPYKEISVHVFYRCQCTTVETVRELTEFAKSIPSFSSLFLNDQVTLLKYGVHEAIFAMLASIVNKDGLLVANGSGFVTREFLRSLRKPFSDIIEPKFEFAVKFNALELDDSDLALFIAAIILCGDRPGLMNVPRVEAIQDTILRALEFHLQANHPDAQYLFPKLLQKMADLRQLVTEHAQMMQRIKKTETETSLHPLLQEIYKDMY
Chain of UniProt P37231 (P37231 whole entry, looked up): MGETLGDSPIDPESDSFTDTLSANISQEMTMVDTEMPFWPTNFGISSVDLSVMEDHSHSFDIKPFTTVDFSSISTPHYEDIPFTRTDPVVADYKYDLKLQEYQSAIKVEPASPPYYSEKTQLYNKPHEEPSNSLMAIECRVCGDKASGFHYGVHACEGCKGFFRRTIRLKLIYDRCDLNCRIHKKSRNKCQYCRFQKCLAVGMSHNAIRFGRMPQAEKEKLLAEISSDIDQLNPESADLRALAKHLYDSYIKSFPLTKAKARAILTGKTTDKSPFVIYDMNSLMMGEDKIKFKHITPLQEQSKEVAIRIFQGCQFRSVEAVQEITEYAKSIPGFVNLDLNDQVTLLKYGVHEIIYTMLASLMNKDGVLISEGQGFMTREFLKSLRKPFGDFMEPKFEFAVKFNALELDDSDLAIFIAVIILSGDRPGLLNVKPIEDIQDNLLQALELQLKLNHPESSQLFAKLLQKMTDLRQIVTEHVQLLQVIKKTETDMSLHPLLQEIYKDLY

COc1ccc(OC(F)(F)F)cc1CN[C@H]1CCCN[C@H]1c1ccccc1
active: Potency [1] 54.5 µM | Potency [3] 43.6 µM | Potency [5] 43.6 µM | Potency [8] 43.6 µM | Potency [12] 54.9 µM
inconclusive: Potency [2] 68.6 µM [falling, single point] | Potency [4] 17.4 µM [rising, full curve] | Potency [6] 54.9 µM [inhibitor, single point] | Potency [7] 54.9 µM | activation [9] -10% | Potency [10] 30.9 µM [falling, partial curve] | Potency [11] 54.9 µM

O=C(O)Cc1ccc(OCCNC[C@H](O)c2ccccc2)cc1
inactive: Potency [2] | Potency [9]
inconclusive: Potency [1] 33.5 µM [falling, single point] | Potency [13] 25.6 µM [activator] | Potency [4] 33.5 µM [rising, single point] | Potency [6] 33.5 µM [inhibitor, single point] | Potency [14] 33.5 µM [single point] | Potency [12] 33.5 µM [cytotoxic, single point]

O=c1c(O)c(-c2ccc(O)cc2O)oc2cc(O)cc(O)c12
inconclusive: Potency [1] 32.3 µM [falling, partial curve, poor fit] | Potency [15] 51.7 µM [rising, partial curve, poor fit] | activation [2] -0.0991% | Potency [5] 58 µM [cytotoxic, single point] | Potency [6] 46.1 µM [rising, partial curve] | Potency [7] 20.6 µM [fluorescent, partial curve] | Potency [14] 51.7 µM [rising, partial curve] | Potency [11] 36.6 µM [rising, partial curve] | Potency [12] 51.7 µM [cytotoxic, partial curve]
inactive: Potency [16]

CCSCC
inconclusive: Potency [1] 72.5 µM [falling, single point] | ratio activity, negative = inhibition [15] 7.93% [at 81.1 µM] | Potency [13] 58.1 µM | Potency [3] 65.2 µM [cytotoxic, single point] | Potency [5] 58.1 µM [cytotoxic, single point] | activation [9] 5.69% [at 81.1 µM] | Potency [12] 51.8 µM [cytotoxic, single point]

CCCCCCCC/C=C\CCCCCCCC(=O)OCCOC(=O)CCCCCCC/C=C\CCCCCCCC
inconclusive: ratio activity, negative = inhibition [15] 12.5% [at 81.1 µM] | Potency [8] 40.4 µM [rising, partial curve, poor fit]
inactive: Potency [1] | Potency [2]

N#[N+]c1ccc2c(S(=O)(=O)[O-])cccc2c1O
inconclusive: Potency [1] 27.3 µM [falling, partial curve, poor fit] | ratio activity, negative = inhibition [15] 5.07%
inactive: Potency [11]

CCCCOCCOC(=O)c1ccccc1C(=O)OCCOCCCC
active: Potency [3] 47.9 µM | Potency [5] 42.7 µM
inconclusive: Potency [1] 67.1 µM [falling, single point] | activation [2] -16.3% | Potency [13] 53.8 µM and 54.9 µM [activator, single point] | Potency [7] 53.8 µM [inhibitor, single point] | activity change, negative = inhibition [7] -9.71% | Potency [14] 0.0381 µM [rising, full curve, poor fit] | activity change, negative = inhibition [11] -11.4%

CC(C)(C)NC(=O)[C@@H]1CN(Cc2cccnc2)CCN1C[C@@H](O)C[C@@H](Cc1ccccc1)C(=O)N[C@H]1c2ccccc2C[C@H]1O
inconclusive: Potency [1] 33.5 µM [falling, single point]
inactive: Potency [11]

CCCCOC(=O)C(C)CC (centres undefined)
inconclusive: Potency [1] 68.6 µM [falling, single point] | Potency [17] 21.9 µM [cytotoxic, partial curve] | Potency [13] 21.9 µM [falling, full curve] | Potency [3] 54.9 µM [cytotoxic, single point] | Potency [6] 54.9 µM | Potency [10] 49 µM [falling, single point] | Potency [14] 21.9 µM [rising, single point]
active: Potency [5] 49 µM | Potency [12] 24.5 µM

Source: PubChem BioAssay (Tox21)
